This note sets out measurements from the RNAGym collection of RNA variant scans (doi:10.7554/elife.90254).

The labels stand for the following.
B1: LINE1-mini (parent)
chain: GGCAGAGCUCAACACAGCGUGGCAAAGUGGCUGUGGCUAGACUGCC

Read counts are not given, so values of variants with three or more changes are uncertain.

In the data set the parent is B1. Put plainly: self-cleavage, relative activity (ratio to wild type); higher = more cleavage; in vitro, sequencing; the parent is a self-cleaving ribozyme.
In the case of C15A C18A U38A A39C, the self-cleavage turned out to be 0.02. Under A14U G27A U32G stands 0.06.

Take C15G G17U C23U A25U: the self-cleavage was 0.01. The figure for C15A G21C C31U G44A is 0.21; for C15A G33U A39U it is 0.01.

Take C15G G30C G40C: the self-cleavage stood at 0.01. The figure for C15G C31U U32A U38A C42A is 0.05; for C15U G29C A39G C46A it is 0.09; for C15G C23U A24G G44C it is 0.01. As to C15G G30C G36U C45G, the self-cleavage is 0.02. As for A14U G35C U38C, the self-cleavage worked out at 0.05. The figure for A14U G19C C31G is 0.03. Turning to C15U A24U C46A, the self-cleavage was determined as 0.17. Under C15A C18U G21A stands 0.03; under C15U G27A A41G, 0.1; under A14U G36A C45A, 0.01. For C15A G17C G35C, the self-cleavage amounted to 0.02.

Consider C15G C37G C42A, for which the self-cleavage turned out to be 0. For C15A A41C C42A, the self-cleavage was 0.03. The figure for C15A C31U G35U is 0.07. The figure for C15A G19C G44C is 0.04; for C15A C18A A26G G30C it is 0.02; for C15A C18A G33C A39U it is 0.01.

For A14U G21U G40A, the self-cleavage worked out at 0.11. Turning to C15G G19C G44C C45G, the self-cleavage was found to be 0. Turning to C15A G17A G36C, the self-cleavage stood at 0.02.

For the variant A14U C18G C37G C42A G44A, the self-cleavage turned out to be 0.02. Under C15A C18A A24C U43G stands 0.02.

With C15U G21A G27U G33U, the self-cleavage was 1.01. The figure for C15G G17C G36C is 0.07; for C15G G19U A41G it is 0.04; for C15A G27C G30C A39U A41C G44A it is 0.03. For C15G G17A G21A, the self-cleavage came to 0.13. The figure for C15U G22A C23U C31G C37U is 0.05; for A14U G30A C37U C42G it is 0. The figure for C15G G21U U28G G44A is 0.01; for C15A U28A G33U G36C A41G it is 0.01; for A14U G29C U34C it is 0.07. The figure for C15A G22C G40C G44U is 0.01; for C15A G17A U38A A39G C42A U43C it is 0.01; for C15A G19C G27U C46U it is 0.13. As for C15U G21C C31A, the self-cleavage was found to be 0.03. The figure for C15U G22U C31G C37G is 0.4; for A14U U28G C31A A41U it is 0.08. With C15U A26C U34G, the self-cleavage came to 0.02. The figure for A14U G19A U20G G22C C46A is 0.05. Under C15A U28A C37G stands 0.01; under C15A A16U C18G C23G, 0.08. Under A14U U20A G29U C31A G33U stands 0.02. C15A G22C G33A: the self-cleavage was found to be 0.03. Under C15A G21A G36U stands 0.09; under C15G A16C G21A U38C, 0.05. C15U G17A G21A: the self-cleavage stood at 0.07. The figure for C15A G19C G33C C37U G40C U43A is 0; for C15U C31G G35A G40A C42G it is 0.02; for C15U G17A U28C C46A it is 0.08. The figure for C15G C18A G19A U38A C46U is 0.02. With C15G G19U U20C, the self-cleavage stood at 0.03. Take C15U G29C G35U C46G: the self-cleavage amounted to 0.07. The figure for C15A A26G U32G is 0.06; for C15U C23G A25C U38A it is 0.19. Under C15A C18G G36A G40U stands 0.03; under C15A U34G C46U, 0.01. The figure for C15G G19U C37G U43A is 0; for C15U G21A C37U U43C C45G it is 0.11.

In the case of C15U G17C G40U, the self-cleavage turned out to be 0. The figure for C15U A16U G35U is 0.03; for C15A G29C C37A A41G it is 0.04. Under A14U G17A C42U stands 0.12. The figure for C15A C18A C37A A39G C42U is 0.01; for A14U G29A U34C G40C it is 0.05. Turning to C15U A16C C37G, the self-cleavage amounted to 0.05. Under C15A C18G A24U U28A U43G G44C stands 0; under C15A A25U C37G G40A, 0.02. Under C15A A16U G19A U32A stands 0.02; under C15U G21U U34G, 0.05. The figure for C15G G36C A41G is 0.02; for C15G C23A A41C it is 0.04. Consider C15A U32A G35U, for which the self-cleavage was found to be 0.18. The figure for C15U C18U U32A A39G is 0.04. The figure for C15G G21U G29C C37U C46U is 0.04; for C15A G27U C37U A41G it is 0.44; for A14U U20A C31U C42G U43A it is 0.07. For the variant C15U G21U C46A, the self-cleavage stood at 0.85. Under C15A G17A G33A stands 0.05; under A14U G27A G29A, 0.04. With A14U G30U C46A, the self-cleavage was 0.06. The figure for C15U A39G G40C A41U G44A is 0.2; for A14U G21A G36A U38C C42U it is 0.01. The figure for C15G C18G U34A is 0.03; for A14U G19A G29U U38A it is 0.93; for A14U U20A G30A C37G it is 0.08. Take C15G C23G G29A C31U G33C: the self-cleavage is 0.23.

Take C15U G33C C46U: the self-cleavage came out at 0.06. Regarding C15U A16G G22C U32G U38G, the self-cleavage stood at 0.03. Under C15A A16U G29U stands 0.05; under A14U G44A C46U, 0.05. A14U C23G G33C: the self-cleavage worked out at 0.01. Under A14U G19U U20C stands 0.48; under C15U C37A G44U, 0.07. C15U A16G A25C U28C C31U C45U: the self-cleavage was found to be 0.01. Under C15U U28C C37G G44U stands 0.03; under C15A A25U G30U G36A C37A U43A G44U, 0.08; under C15U C18G U28A, 0.06. Under C15U C23A A39G stands 0.12. The figure for C15U G22C C23A U28G C37A is 0.08. With C15U G21C G22U G27U, the self-cleavage was found to be 0.79.

As to C15U C23A U38A A41G C42A, the self-cleavage was found to be 0. For the variant C15G A24U C31A, the self-cleavage is 0.02.

Take C15A A16U G22A: the self-cleavage was 0.08. Under C15G G22C G30U C46A stands 0.02. Under C15U C31A C46U stands 0.17; under C15G A24C G27C, 0.04; under C15A G19C A26U, 0.04. A14U C37U G40A: the self-cleavage was determined as 0.17. C15U A41U C45U: the self-cleavage was 0.26. Under C15G G30C C37A A39U G40U C42G U43G stands 0.02.

Turning to C15U C18G G29U G33U, the self-cleavage was 0.16. The figure for C15G A25C G27U C31A U32G is 0. The figure for C15G G27C G35U is 0; for C15G C18G A24G U32C it is 0.02; for A14U C42U C45G it is 0.05. Under A14U G22U A24U G40A C42U stands 0.11. With C15U G19C G22C G30U, the self-cleavage was 0.06. Under A14U U28G G35A stands 0.01. The figure for C15U G40A C45G is 0.07; for A14U G35A G44C it is 0.05.

As to C15U G33U C42U, the self-cleavage worked out at 0.16.

Consider C15G G21U A41U, for which the self-cleavage stood at 0.03. Under C15A G19C A25U C31A G40A stands 0.05; under A14U G19A U38G, 0.06; under A14U G27A U34C C42G C45U, 0.1. The figure for C15A G33A U34G C37U is 0.01; for C15U A16G A25G G29U C45G it is 0.02. Under C15U G29C C42U stands 0.56. Turning to C15A A26G G35C G40U, the self-cleavage stood at 0.01. The figure for A14U G17U G33A U43A is 0.14; for C15G A41U C46G it is 0.01; for C15U G21U A25G U43C it is 0.02. Under A14U U28G C42U stands 0.11. For A14U G29C G36U, the self-cleavage is 0.02. For C15G G27C A39G C42A, the self-cleavage worked out at 0.01.

C15U G21C G22U C42G: the self-cleavage came out at 0.37. The figure for C15U G22U G36A C42U C45U is 0.12; for C15G G17C G29U U32A A39G C42U it is 0.03; for C15G G19U C23A it is 0.05.

With C15G U20C C45G, the self-cleavage was found to be 0.03. The figure for C15G G30C U38A is 0.03. Under A14U U28G G29A stands 0.05.

As for C15G C18A G36C, the self-cleavage was found to be 0.01. The figure for C15A U34C G36C is 0.02.

With A14U G21C G33C G36A A39G, the self-cleavage amounted to 0.01. Under C15U G27A G30C stands 0.12; under A14U G17C G19U G22A, 0.12. In the case of C15A C18U G27A G33A C37U, the self-cleavage amounted to 0.02.

On to C15A G19A A24U G33C, for which the self-cleavage was 0.01. Under A14U G17U A25C C45A stands 0. With C15A A16C C23A G27U, the self-cleavage worked out at 0.03. Under C15G U20C G36C stands 0.11; under C15U C37G A41C, 0.04.

Regarding C15U G21A C42A, the self-cleavage turned out to be 0.07. The figure for C15U C23A G30U C46U is 0.53; for C15U G17U U20G G30A it is 0.02; for A14U G19C C46G it is 0.37.

C15G G21A G30U: the self-cleavage came out at 0.03. Turning to C15G C31A G36C, the self-cleavage came out at 0.02. For the variant C15G C18G G21A A39C, the self-cleavage came to 0.02.
